Results as given in PubChem BioAssay AID1345083 (National Center for Advancing Translational Sciences (NCATS), 2018).
Hit rate of the full screen: of about 94,000 compounds, about 6,200 (6.6%) were called active. This list was built around the results that the source calls inconclusive (neither active nor inactive); the mix of calls is not that of the screen. Calls follow the shape of the dose curve; as a rule, active = well fitted inhibition curve with a large enough effect; inconclusive = small, poorly fitted or top-dose-only effect; inactive = flat fitted curve, though single readings scatter. Potencies beside an inconclusive call are fits to weak or partial responses and may not hold up.

Assay: Cytotoxic Profiling in HEK 293 Cell Line of Diverse Libraries Using Quantitative High-Throughput Screening; also: nearly all actives have a fitted effect of over 60% in size
Conditions: HEK 293 viability, ATP luminescence (CellTiter-Glo), 48-72 h; series mostly up to 115 µM
Procedure, shortened: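 HEK 293 cells at 250 cells/well were exposed to compounds by pintool transfer for 48 or 72 hr at 37 degree Celsius, 5% CO2. Viability was read as ATP-coupled luminescence with CellTiter-Glo after 10 min at room temperature.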
Potency is read from the fitted curve at half-maximal effect; tags tell the direction and shape of the fitted curve.

Row | Compound | Potency
1 | O=C1CO[C@H]2CCN(Cc3cccs3)CC[C@@H]2N1Cc1c[nH]c2ccccc12 | inconclusive: 100 µM [inhibitor, partial curve]
2 | O=C(C1CC(=O)N(C2CC2)C1)N1CCCN(Cc2ccccn2)CC1 (configuration not stated) | inactive
3 | COc1ccccc1Nc1ccnc(N2CCCC(C(=O)NCc3ccc(Cl)cc3)C2)n1 (configuration not stated) | active: 11.2 µM
4 | COc1ccc(Nc2ccnc(N3CCCC(C(=O)NCc4cccc(F)c4)C3)n2)cc1 (configuration not stated) | active: 12.6 µM
5 | COc1ccc(C(=O)N2CCc3ccc(C(=O)NCc4ccc(C)o4)cc32)cc1 | inconclusive: 50.1 µM [inhibitor, partial curve, poor fit]
6 | CCN1CCN(C(=O)c2nc3sccn3c2-c2cccnc2)CC1 | inactive
7 | Cc1cc(C)n(-c2ccc(NC(=O)C3CCCCN3C(=O)c3ccc[n+]([O-])c3)cc2)n1 (configuration not stated) | inconclusive: 89.1 µM [inhibitor, single point]
8 | Cc1ccccc1C(=O)N[C@H]1[C@H](O)[C@H](O)C[C@@H]1c1cccnc1 | inactive
9 | Oc1cccc(Nc2cnc3ccc(-c4ccc(F)cc4)nn23)c1 | inconclusive: 31.6 µM [inhibitor, full curve, poor fit]
10 | COc1ccccc1-c1nc(C(=O)NCCc2ccc(Cl)cc2)n2ccncc12 | inconclusive: 35.5 µM [inhibitor, full curve]
11 | c1ccc(OCc2cc(CC3(NCc4ccc5c(c4)OCO5)COC3)no2)cc1 | inconclusive: 112 µM [inhibitor, partial curve]
12 | CC1=C[C@@H](CNC(=O)Cn2cnnn2)[C@H](C(C)C)C[C@H]1Cc1nc2ccncc2[nH]1 | inconclusive: 100 µM [inhibitor, partial curve, poor fit]
13 | CNC(=O)N1CCC(C2CCN(Cc3cc(F)c(F)c(F)c3)C2)CC1 (configuration not stated) | inactive
14 | COCc1nc(-c2ccc(OC3CN(C(=O)NC(C)C)C3)cc2)no1 | inconclusive: 50.1 µM [inhibitor, partial curve, poor fit]
15 | C[S+](=O)([O-])NC1CC2(CCN(C(=O)Cc3c[nH]c4ccccc34)CC2)c2ccccc21 (configuration not stated) | inactive
16 | COc1ccc(CC(=O)NC2CCN(C(=O)c3ccc(-c4cccc(OC)c4)cc3)CC2)cc1 | active: 44.7 µM
17 | O=c1[nH]c2ccccc2n1C1CCN(c2nccc(-c3cccnc3)n2)CC1 | active: 14.1 µM
18 | COc1ccccc1Cn1c(-c2ccc(Cl)cc2)nc(C)c(CCO)c1=O | active: 31.6 µM
19 | CN(Cc1ccc(F)cc1)C(=O)c1cccc(Cl)c1 | inconclusive: 100 µM [inhibitor, partial curve]
20 | O=C(NCc1cccnc1)c1ccc(-c2ccc(N3CCSCC3)nc2)cc1 | active: 10 µM
21 | CO[C@@H]1CCOC[C@H]1NC(=O)c1cc(N2CCCCC2)ccc1Cl | inconclusive: 89.1 µM [inhibitor, single point]
22 | Cc1cnc(C(=O)N[C@@H]2CCC[C@@H]2C(=O)NCc2ccc(OC(F)(F)F)cc2)cn1 | inactive
23 | O=C1NCc2ccccc2CC12CCCCN2Cc1ccc(CO)o1 (configuration not stated) | inactive

Row | Compound | Potency
24 | CCCS(=O)(=O)N1CCC2(CC1)CC1C(=O)NCCN1C2 (configuration not stated) | inactive
25 | O=C(c1ccc(Cl)cc1)N1CCC(N2CCCNC2=O)CC1 | inactive
26 | COc1cccc(NC(=O)N2CC[C@H]3CC(=O)N(c4ccccc4)CC[C@H]3C2)c1 | inactive
27 | c1ccc(CCc2noc(-c3ccc(NCCN4CCCC4)nc3)n2)cc1 | inconclusive: 50.1 µM [inhibitor, partial curve, poor fit]
28 | COc1ccc2[nH]cc(CCNC(=O)C3Cn4cccc4C(=O)N3C)c2c1 (configuration not stated) | inactive
29 | COc1ccc(-c2ccc3c(c2)C(=O)N2CC[C@H](NC(=O)c4cccs4)[C@H]2C(=O)N3)cc1 | inactive
30 | COc1ccc(C(=O)NC2CCN(c3cc(C(F)(F)F)nc(C)n3)CC2)cc1 | inconclusive: 79.4 µM [inhibitor, single point]
31 | COc1ccccc1N1CCN([C@@H]2[C@H](O)[C@H](CO)O[C@@H]2CN(Cc2ccc(F)cc2)Cc2ccc(F)cc2)CC1 | active: 28.2 µM
32 | Cc1ccc(S(=O)(=O)N2CCCC(Cn3c(C4CC4)nc4cccnc43)C2)cc1C (configuration not stated) | inconclusive: 89.1 µM [inhibitor, single point]
33 | COCCN1CC(CO)C2(CCN(Cc3ccccc3C(F)(F)F)CC2)C1 (configuration not stated) | inconclusive: 50.1 µM [inhibitor, partial curve, poor fit]
34 | CN1CC(=O)N(c2cccc(F)c2)Cc2c(NC3CCNCC3)ncnc21 | inactive
35 | COCCN(Cc1ccc(C)cc1)Cc1ccc(C#N)cc1 | inconclusive: 50.1 µM [inhibitor, partial curve, poor fit]
36 | COc1ccc(C(=O)N2CCC(Oc3ccc(-c4noc(C(C)C)n4)cc3)C2)cc1 (configuration not stated) | active: 39.8 µM
37 | COc1ccc(NC(=O)N2CCCC2c2nncn2C2CCCC2)c(OC)c1 (configuration not stated) | inactive
38 | OCC1(Cc2ccccc2F)CCCN(c2nccc(C(F)(F)F)n2)C1 (configuration not stated) | inconclusive: 89.1 µM [inhibitor, partial curve, poor fit]
39 | O=C1NN=C(C2CC2)C12CCN([S+](=O)([O-])c1cccc(C(F)(F)F)c1)CC2 | inconclusive: 35.5 µM [inhibitor, partial curve, poor fit]
40 | COc1cc(NC(=O)Cn2c(N3CCC(C)CC3)nc(C)cc2=O)cc(OC)c1 | inconclusive: 15.8 µM [inhibitor, full curve, poor fit]
41 | COc1ccc(-c2nc(C3CC3)nc3c2CN(C(=O)c2ccccn2)CC3)cc1 | inactive
42 | O=C(NC1CCCN(c2cc(-c3ccccc3)[nH]n2)C1)c1cccc(Br)c1 (configuration not stated) | inconclusive: 44.7 µM [inhibitor, partial curve, poor fit]
43 | COc1ccccc1-c1cccc(C(=O)N2CCC[C@H]2C(=O)NCC(F)F)c1 | inactive
44 | COc1ccccc1C(C)N(C)C(=O)c1cccc(CCC(C)(C)O)c1 (configuration not stated) | inconclusive: 56.2 µM [inhibitor, partial curve, poor fit]
45 | CCOc1ccc(CC(=O)NCCn2ccn3nc(-c4ccc(C)cc4C)cc3c2=O)cc1 | inconclusive: 50.1 µM [inhibitor, partial curve, poor fit]
46 | CC1(COc2ccccc2)COc2ccc(C(=O)NCc3ccncc3)cc2N1 (configuration not stated) | inconclusive: 89.1 µM [inhibitor, partial curve, poor fit]

Row | Compound | Potency
47 | COCCn1ccc2ccc(C(=O)NC3CCCc4c3[nH]c3ccccc43)cc21 (configuration not stated) | inconclusive: 10 µM [inhibitor, full curve, poor fit]
48 | c1cncc(CN2CC(Oc3ccc4c(c3)OCO4)C2)c1 | inactive
49 | COc1ccc(CCN2Cc3cc(NC(=O)Cc4cccs4)ccc3OCC2=O)cc1 | inconclusive: 50.1 µM [inhibitor, partial curve, poor fit]
50 | C[C@]1(CO)[C@H]2Cc3sc(NC(=O)c4c(F)cccc4F)nc3[C@@H](CC(=O)NC3CCCC3)[C@]2(C)CC[C@H]1O | inconclusive: 89.1 µM [inhibitor, single point]
51 | CO[C@H]1CN(C2CCN(S(=O)(=O)c3ccc(C#N)cc3)CC2)[C@H]1c1cccnc1 | inconclusive: 44.7 µM [inhibitor, partial curve]
52 | Cn1c([C@H]2CCN(Cc3ccc(Cl)cc3)C2)nc2ccccc21 | inconclusive: 63.1 µM [inhibitor, partial curve, poor fit]
53 | Cc1cccc(NC(=O)N2C[C@@H](F)C[C@H]2C(=O)N2CCc3ccccc3C2)c1C | inconclusive: 100 µM [inhibitor, single point]
54 | COc1ccc(-c2cc(N3CCC(NC(=O)c4ccc(C)s4)CC3)n[nH]2)cc1 | inconclusive: 28.2 µM [inhibitor, full curve, poor fit]
55 | CNC(=O)c1cc(C2CC2)nc2c1c(C1CCCN(C(=O)Cc3ccc(F)cc3)C1)nn2C (configuration not stated) | inconclusive: 100 µM [inhibitor, partial curve, poor fit]
56 | COCc1nc(-c2ccc(OC3CN(C(=O)c4cc(C)n(C)n4)C3)cc2)no1 | inconclusive: 79.4 µM [inhibitor, single point]
57 | COc1cccc(CN(C)CC(C)N2CCOCC2)c1O (configuration not stated) | inactive
58 | CN(Cc1cccs1)c1cc(C2CC(O)C2)ncn1 (configuration not stated) | inconclusive: 89.1 µM [inhibitor, partial curve, poor fit]
59 | COCCCN1CCCC2(CCN(C(=O)NCc3cccc(F)c3)C2)C1=O (configuration not stated) | inactive
60 | Cc1nsc(NC(=O)N2CCCN(c3ccccc3)CC2)n1 | inconclusive: 89.1 µM [inhibitor, single point]
61 | Cc1nn(-c2ccccc2)c2c1C(C1CC1)N(CC1CN(C(=O)C3CCCC3)C1)C2=O (configuration not stated) | inconclusive: 50.1 µM [inhibitor, partial curve, poor fit]
62 | NC1CCCCN(C(=O)CCc2n[nH]c3c2CCCC3)C1 (configuration not stated) | inactive
63 | CCN1C[C@H]2COc3cc(OC)ccc3[C@H]2N(C(=O)C2CCCC2)CCC1=O | inactive
64 | O[C@@H]1C[C@@H](c2nc(-c3ccc4c(c3)OCO4)no2)N(CC2CCCCC2)C1 | active: 89.1 µM
65 | N#Cc1ccc(S(=O)(=O)N2CCCCCCNC(=O)CC2c2ccccc2)cc1 (configuration not stated) | inconclusive: 50.1 µM [inhibitor, partial curve, poor fit]
66 | COc1ccc(Cn2c(C3CCN(C(=O)Cc4ccccc4Cl)CC3)n[nH]c2=O)cc1 | inactive
67 | Cc1ccccc1CC(=O)N1CCN(c2cc(-c3cccs3)[nH]n2)CC1 | inconclusive: 50.1 µM [inhibitor, partial curve, poor fit]
